In PubChem BioAssay AID360 (National Center for Advancing Translational Sciences (NCATS), 2006) one finds Potency data, which are given here for 89 compounds.

Structures are written as SMILES. The campaign covered roughly 48,000 compounds. About 550 (1.1%) were called active. Roughly 4% stayed inconclusive and do not appear here. No stated cut-off is given here; in the data, active means potency below about 15 µM; inconclusive means mostly about 16 µM to 33 µM; inactive means weaker than that. Some of the results follow. Some results are limits rather than exact numbers.
Potency means the concentration at half of the fitted maximal effect.

Chain of UniProt P04062 (P04062 whole entry, looked up): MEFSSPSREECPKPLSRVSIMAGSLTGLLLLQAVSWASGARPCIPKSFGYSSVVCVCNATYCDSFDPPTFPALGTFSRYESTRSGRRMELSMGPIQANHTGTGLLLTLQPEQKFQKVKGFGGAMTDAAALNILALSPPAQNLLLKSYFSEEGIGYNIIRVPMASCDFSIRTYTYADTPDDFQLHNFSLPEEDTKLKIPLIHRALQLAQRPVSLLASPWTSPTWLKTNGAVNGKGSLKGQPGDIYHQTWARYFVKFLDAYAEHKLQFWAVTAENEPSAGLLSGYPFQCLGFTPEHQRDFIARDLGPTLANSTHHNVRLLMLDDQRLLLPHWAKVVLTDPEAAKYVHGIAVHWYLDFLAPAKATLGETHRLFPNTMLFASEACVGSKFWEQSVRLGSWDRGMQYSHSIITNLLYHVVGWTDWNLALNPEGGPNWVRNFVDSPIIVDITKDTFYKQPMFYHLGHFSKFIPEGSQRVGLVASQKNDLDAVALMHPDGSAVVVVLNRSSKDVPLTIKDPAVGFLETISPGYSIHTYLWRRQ

The target of this assay is Lysosomal acid glucosylceramidase (Homo sapiens) (UniProt P04062). The experiment in a line: Glucocerebrosidase.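 Further: the screen sought inhibitors.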 Conditions: purified enzyme, resorufin glucoside fluorescence (screen aimed at inhibitors), 20 min; series mostly up to 77 µM. Put shortly:
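Compounds titrated against 0.2 nM normal enzyme, 30 uM resorufin beta-D-glucopyranoside substrate, citrate/phosphate buffer with taurocholate and tween-20, pH 5.9. Reaction ran 20 min at room temperature; fluorescence (Ex 548/Em 600) gave AC50.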
On to `C=CCSc1n[nH]c(-c2ccc(OCCCC)cc2)n1`, for which the Potency was inactive: > 76.9 µM.

For the compound `CCOc1cc(C)nc(Oc2ccc(=O)[nH]n2)n1`, the Potency was inactive: > 76.9 µM.

On to `Cc1cccn2c(=O)c3cc(C(=O)NCC4CCCO4)c(=N)n(Cc4cccnc4)c3nc12` (centres undefined), for which the Potency is inactive: > 76.9 µM.

Consider `O=C1CSC(c2ccccc2)N1CC12CC3CC(CC(O)(C3)C1)C2` (centres undefined), for which the Potency is inactive: > 76.9 µM.

Regarding `Cc1ccnc(N2CCC(C(=O)Nc3ccc4c(c3)OCO4)CC2)n1`, the Potency was inactive: > 76.9 µM.

As for `CCN(CC)c1cc(C)c2cc(NC(=O)CNC(C)=O)ccc2n1`, the Potency was inactive: > 76.9 µM.

For `CNC(=O)N(O)C1N(C)C(=O)N(CC(=O)OC)C1(C)C` (centres undefined), the Potency is inactive: > 76.9 µM.

Regarding `COc1cccc(C2C(C(=O)c3cc4cccc(OC)c4o3)=C(O)C(=O)N2c2cc(C)on2)c1OC` (centres undefined), the Potency is inactive: > 76.9 µM.

With `C=CCn1c(Cc2cccs2)nnc1SCC(=O)Nc1ccc(OC)c(OC)c1`, the Potency was inactive: > 76.9 µM.

In the case of `CN(C(=O)C1CCOC1)c1nnc(C2CCOC2)s1` (centres undefined), the Potency was inactive: > 76.9 µM.

For `Cc1cccc(NC(=O)C2CCCN2C(=O)OCC(C)C)c1C` (centres undefined), the Potency was inactive: > 76.9 µM.

As for `COc1ccccc1CN(Cc1cc2cc(C)ccc2[nH]c1=O)Cc1nnnn1CC1CCCO1` (centres undefined), the Potency was inactive: > 76.9 µM.

Consider `COc1ccc(OC)c2sc(N3CCCCC3)nc12`, for which the Potency is inactive: > 76.9 µM.

Turning to `CCCn1c2c(c(O)c(C(=O)Nc3ccccc3)c1=O)CCCC2`, the Potency was inactive: > 76.9 µM.

On to `Cc1ccc(-c2csc3nnc(SCC(=O)NCc4ccco4)n23)cc1`, for which the Potency was inactive: > 76.9 µM.

As to `COC(=O)CSc1nnc(-c2ccccc2O)n1-c1ccc(C)cc1`, the Potency result was “inactive”.

For `Cc1c(C(=O)NC(C)c2ccncc2)oc2ccccc12` (centres undefined), the Potency is inactive: > 76.9 µM.

With `O=C(c1ccc2c(=O)n(Cc3ccc4c(c3)OCO4)c(=S)[nH]c2c1)N1CCCCC1`, the Potency is inactive: > 76.9 µM.

As to `COc1ccc(-c2[nH]ncc2-c2ccc3c(c2)OCCO3)c(O)c1`, the Potency was inactive: > 76.9 µM.

Take `CCCCOc1ncnc2c1[nH]c1ccccc12`: the Potency is inactive: > 76.9 µM.

For `O=C(c1ccc(=O)n(Cc2ccccc2)n1)N1CCN(C/C=C/c2ccccc2)CC1`, the Potency is inactive: > 76.9 µM.

Turning to `Cc1csc(SCCn2c(N3CCN(c4ccccc4)CC3)nc3c2c(=O)[nH]c(=O)n3C)n1`, the Potency is inactive: > 76.9 µM.

On to `CCCC(C(=O)NC1CCCC1)N(Cc1cccs1)C(=O)c1snc(C(N)=O)c1N` (centres undefined), for which the Potency is inactive: > 76.9 µM.

Consider `O=C(c1nc2n(n1)C(c1ccc(Cl)cc1)C=C(c1ccccc1)N2)N1CCOCC1` (centres undefined), for which the Potency is inactive: > 76.9 µM.

For the compound `c1cncc(-c2nc(-c3ccco3)cs2)c1`, the Potency is inactive: > 76.9 µM.

Take `Cc1noc(C)c1C(=O)NCCCN1CCCC1=O`: the Potency was inactive: > 76.9 µM.

For `CN(C)c1cccc(C(=O)Nc2cccc(F)c2)c1`, the Potency is inactive: > 76.9 µM.

As for `COc1cc(C(=O)N2CCN(c3ncnc4sc(C)c(C)c34)CC2)cc(OC)c1OC`, the Potency was inactive: > 76.9 µM.

Regarding `Cc1cccc2cc(CN(CC3CCCO3)C(=O)NC3CCCCC3)c(=O)[nH]c12` (centres undefined), the Potency was inactive: > 76.9 µM.

As for `COc1ccc(N2CCN(Cc3nc4ccccc4c(=O)[nH]3)CC2)cc1`, the Potency is inactive: > 76.9 µM.

Take `Cc1ccc(Cn2c(Sc3nccc(C)n3)nc3c2c(=O)[nH]c(=O)n3C)cc1`: the Potency is inactive: > 76.9 µM.

For the compound `COc1ccc(C(=O)COC(=O)CN2CC(=O)Oc3ccccc32)cc1Br`, the Potency is inactive: > 76.9 µM.

For the compound `CC1=CCC(Cc2nc3ccccc3o2)C1(C)C` (centres undefined), the Potency is inactive: > 76.9 µM.

Regarding `O=C(Nc1cccc(Cl)c1)N(CCCN1CCOCC1)Cc1ccccc1F`, the Potency was active: 11.4 µM.

As for `Cc1ccc(N=Cc2c(O)n(C)c(=O)n(C)c2=O)nc1`, the Potency is inactive: > 76.9 µM.

Regarding `COc1ccc(OCC(=O)N2CCN(C(=O)Cc3ccccc3)CC2)cc1`, the Potency was inactive: > 76.9 µM.

In the case of `Fc1ccc(CSc2nncn2NCc2ccc3c(c2)OCO3)cc1`, the Potency is inactive: > 76.9 µM.

Consider `Cc1ccccc1N1CCN(C(=O)C2CCCCC2)CC1`, for which the Potency was inactive: > 76.9 µM.

Regarding `OC(COc1ccc(Cl)cc1)CN1CCCCC1` (centres undefined), the Potency was inactive: > 76.9 µM.

On to `CC1CCN(S(=O)(=O)c2ccc(NC(=O)CN3CCN(C)CC3)cc2)CC1`, for which the Potency is inactive: > 76.9 µM.

Consider `Cc1ccc(Cn2nnc3c(=O)[nH]c(C4CCN(S(=O)(=O)c5ccc(C)cc5)CC4)nc32)cc1`, for which the Potency is active: 13.9 µM.

For the compound `O=C(CSc1nc(C2CC2)nc2sc3c(c12)CCCC3)NCc1ccco1`, the Potency is inactive: > 76.9 µM.

On to `CCC(c1nnnn1Cc1cccs1)N1CCN(C2CCCC2)CC1` (centres undefined), for which the Potency is inactive: > 76.9 µM.

For `CC1(C)CC(=O)C(C(C2=C(O)CC(C)(C)CC2=O)c2cccnc2)C(=O)C1` (centres undefined), the Potency is inactive: > 76.9 µM.

For the compound `Cc1ccc(Cn2c(NCCc3ccccc3)nc3c2c(=O)n(C)c(=O)n3C)cc1`, the Potency was inactive: > 76.9 µM.

With `O=C(Nc1cccnc1)C1CC(c2ccc(Cl)c(Cl)c2)=NO1` (centres undefined), the Potency was inactive: > 76.9 µM.

For `COC(=O)c1cc(=O)nc2sc(-c3ccc(F)cc3)nn12`, the Potency is inactive: > 76.9 µM.

Consider `O=C(NC1CCS(=O)(=O)C1)c1cn(-c2ccccc2)nc1-c1ccccc1` (centres undefined), for which the Potency was inactive: > 76.9 µM.

In the case of `COc1ccccc1C(=O)Nc1c2c(nn1-c1cccc(C)c1C)CS(=O)C2` (centres undefined), the Potency is inactive: > 76.9 µM.

`O=C(COC(=O)c1ccccc1NC(=O)c1ccco1)NCc1ccc2c(c1)OCO2`: the Potency was inactive: > 76.9 µM.

Turning to `CCC(OC(=O)c1ccco1)C(=O)NCc1ccco1` (centres undefined), the Potency is inactive: > 76.9 µM.

Take `COCCN1Cc2cccc(C(=O)Nc3cccc(OC)c3)c2C1=O`: the Potency was inactive: > 76.9 µM.

As to `Cc1ccc2cc(C(c3nnnn3Cc3ccccc3)N3CCN(c4ccccc4)CC3)c(=O)[nH]c2c1` (centres undefined), the Potency is inactive: > 76.9 µM.

Take `O=C(O)CN1C(=O)CSc2ccccc21`: the Potency was inactive: > 76.9 µM.

As to `CC(=O)C1C(c2ccc(F)cc2)NC(=O)NC1(O)C(F)(F)F` (centres undefined), the Potency is inactive: > 76.9 µM.

In the case of `CCOc1ccc(-c2nnc3ccc(SC)nn23)cc1`, the Potency is inactive: > 76.9 µM.

With `COc1ccc(C)cc1NC(=O)Cn1cnc2sc(C)c(S(=O)(=O)N3CCOCC3)c2c1=O`, the Potency is inactive: > 76.9 µM.

As to `Cn1c(NCc2ccco2)nc2ccccc21`, the Potency is inactive: > 76.9 µM.

With `Cc1ccc(S(=O)(=O)N2CCN(c3nc(C)nc4sc(C)c(C)c34)CC2)cc1`, the Potency is inactive: > 76.9 µM.

For the compound `CCn1c(-c2c[nH]c3ccccc23)n[nH]c1=S`, the Potency is active: 10.8 µM.

On to `N#C/C(=C(/O)COC(=O)CCc1ccc(S(=O)(=O)N2CCOCC2)cc1)c1nc2ccccc2[nH]1`, for which the Potency result is “inactive”.

In the case of `Cc1ccc2cc(CN(CC3CCCO3)C(=O)C(C)C)c(=O)[nH]c2c1` (centres undefined), the Potency is inactive: > 76.9 µM.

With `CCCCCCn1c(-c2ccco2)nc2oc3cc(OC)ccc3c(=O)c2c1=O`, the Potency was inactive: > 76.9 µM.

For `Cn1nc(OCC(N)=O)ccc1=O`, the Potency is inactive: > 76.9 µM.

Regarding `CCCCc1c(O)nc2n(c1=O)CCS2`, the Potency was inactive: > 76.9 µM.

On to `Cc1onc(-c2ccccc2Cl)c1C(=O)N1CCN(c2ccccc2)CC1`, for which the Potency is inactive: > 76.9 µM.

Take `Cc1nc(-c2cccc(-c3noc(C)n3)c2)no1`: the Potency was inactive: > 76.9 µM.

For `O=C(NCC1CC1)C1CCCN(S(=O)(=O)c2ccc(-n3cnnn3)cc2)C1` (centres undefined), the Potency was inactive: > 76.9 µM.

With `O=C(COC(=O)c1ccccn1)Nc1cc(Cl)ccc1Cl`, the Potency is inactive: > 76.9 µM.

Turning to `COc1ccc(Nc2nc(C)cc(C)c2C(N)=O)c(OC)c1`, the Potency was inactive: > 76.9 µM.

`Cc1ccc(-c2noc(CCC(=O)NCCc3ccccc3Cl)n2)cc1`: the Potency was inactive: > 76.9 µM.

Consider `COc1ccc(CCn2c(C)cc3c(c2=O)C(c2ccncc2)C(C#N)=C(N)O3)cc1OC` (centres undefined), for which the Potency is inactive: > 76.9 µM.

With `O=C(NC1(C(F)(F)F)NC(=O)N(Cc2ccco2)C1=O)c1cccnc1` (centres undefined), the Potency is inactive: > 76.9 µM.

Regarding `O=S(=O)(c1ccc2c(c1)OCCO2)N1CCC(O)(c2ccc(Cl)cc2)CC1`, the Potency was inactive: > 76.9 µM.

For `CCOC(=O)N1CCC(NC(=O)c2cnn3cccnc23)CC1`, the Potency is inactive: > 76.9 µM.

On to `COc1ccc(C2C(C(=O)c3ccc(C)o3)=C(O)C(=O)N2c2cc(C)on2)cc1OC` (centres undefined), for which the Potency is inactive: > 76.9 µM.

In the case of `CCn1c(SCc2nnc(-c3ccccc3)o2)nnc1-c1ccc(S(=O)(=O)N2CCCC2)cc1`, the Potency was inactive: > 76.9 µM.

Regarding `Cc1nn(C)c(C)c1Sc1ccc(Br)cc1`, the Potency is inactive: > 76.9 µM.

As for `NC(=O)CCn1nc(-c2ccccc2)c2ccccc2c1=O`, the Potency is inactive: > 76.9 µM.

`Cc1ccc(-c2nnc3ccc(SCC(=O)Nc4cc(C)on4)nn23)cc1`: the Potency was inactive: > 76.9 µM.

Regarding `O=C(CC1OC(=O)c2ccccc21)c1ccco1` (centres undefined), the Potency is inactive: > 76.9 µM.

In the case of `O=C(O)CCc1ccc(-c2ccccc2)n1Cc1ccco1`, the Potency is inactive: > 76.9 µM.

Regarding `Cc1c(NC(=O)CN2C(=O)C3C4C=CC(C4)C3C2=O)c(=O)n(-c2ccccc2)n1C` (centres undefined), the Potency was inactive: > 76.9 µM.

As for `COc1cccc(NC(=O)N2CCC(N3CCCCC3)CC2)c1`, the Potency was inactive: > 76.9 µM.

On to `COc1cc(NC(=O)c2ccccc2Cl)c(OC)cc1NC(=O)CN1CCOCC1`, for which the Potency was inactive: > 76.9 µM.

With `COCc1c(C(=O)OCc2nc(N)nc(Nc3ccccc3C)n2)oc2ccccc12`, the Potency was inactive: > 76.9 µM.

As for `COC(=O)c1[nH]c2ccc(Cl)cc2c1NC(=O)CN1CCC(C(N)=O)CC1`, the Potency is inactive: > 76.9 µM.

On to `O=C(CN1C(=O)CCS(=O)(=O)c2ccccc21)NCc1ccc2c(c1)OCO2`, for which the Potency is inactive: > 76.9 µM.

For the compound `COc1ccc(-n2nnnc2SCC#CCO)cc1`, the Potency is inactive: > 76.9 µM.
